According to article PMC12136788:
This is one part of the list.

B1: chr6:113953301:113953428:-|CDS|ENSG00000196591|unk|FALSE|unique (ssRNA)
RNA: GGGAGUUCUACAGUCCGACGAUCAAAAACCAAAACUUAUGGAUUUGUUUUCAGGUAUCAUCAGAGAGUCUUAUAUAUUGAUAUAGAUAUUCAUCAUGGUGAUGGUGUUGAAGAAGCUUUUUAUACAACAGAUCGUGUAAUGACCAACAGAGGAUUGAGCAUCA
B2: chr21:25881503:25881610:-|3pUTR|ENSG00000142192|msi1_unk|total|mutant (ssRNA)
RNA: GGGAGUUCUACAGUCCGACGAUCACAAACCCGUUUUAUGAUUUACUCAUUAUCGCCUUUUGACAGCUGUGCUGUAACACAAGCCGAUGCCUGAACUUGAAUUAAUCCACACAUCAGUAAUGUAUUCUAUCUCUCUUUACAUUUCAACAGAGGAUUGAGCAUCA
B3: chr13:113097702:113097803:+|3pUTR|ENSG00000126217|unk|FALSE|unique (ssRNA)
RNA: GGGAGUUCUACAGUCCGACGAUCAAAGAAAAUACAAAGAUGCAGUUUCUGCAGGGUGUGGCGUGGACCAGUGCUGCCGACCAUAGCUCAGAGAGCCCUGCCCCUGCCUCACUGCACUGCAGCCUCCUCGGAGGCCGCACCUCCCAACAGAGGAUUGAGCAUCA
B4: chr1:6525536:6525637:-|3pUTR|ENSG00000162408|msi1|FALSE|unique (ssRNA)
RNA: GGGAGUUCUACAGUCCGACGAUCACAGUUUGUGUGCCAUUAAAACAGAGAUUCCUCAGAAAGUUCUUCAGGGACCUGGUUAUUAGAAUCAGGAUAAAAAUAAGGAAACUGGGGCCAUUACAAUGUACCGAGAAGGAAGGAAGACAACAGAGGAUUGAGCAUCA
B5: ENSG00000153989:stop:overlap|stop_codon|ENSG00000153989|stop_codon|NA|stop_codon (ssRNA)
RNA: GGGAGUUCUACAGUCCGACGAUCAUGAGGACUUUUUCUCUGCCCUUCGUCAAUAUGCAGCCUGUGAACAGCGUCUGGGAAAGUAGUGGUCAUUGGUUGCAUAAUUUGAUUUGAGGCUUGUGGAGGAAAGGAACCAAGUGACUCCAACAGAGGAUUGAGCAUCA
B6: chr1:157676480:157678709:-|three_prime_utr|ENSG00000160856|control|control|control (ssRNA)
RNA: GGGAGUUCUACAGUCCGACGAUCAAGCACUGUGUUAUUUUCACAGUGGAGACACGUGGCAAGGCAGGAGGGCCCUCAGCUCCUAGGGCUGUCGAAUAGAGGAGGAGAGAGAAAUGGUCUAGCCAGGGUUACAAGGGCACAAUCCAACAGAGGAUUGAGCAUCA
B7: chr7:2728618:2728646:-|3pUTR|ENSG00000146535|msi1_unk|total|mutant (ssRNA)
RNA: GGGAGUUCUACAGUCCGACGAUCUUUAAUUUCACUGUUAAUCCUUAUUGUCUUUUUUAUUAAGAUGUUGGAAAAGCAGGAGGCCGUUGUGCCUCAAUUAUUGCAAAAAUGUAACAAUAAAGUUCCUCAAAAUAAGAUCUGUUCCAACAGAGGAUUGAGCAUCA
B8: chrX:48578139:48578249:+|3pUTR|ENSG00000102317|msi1_unk|FALSE|overlapping (ssRNA)
RNA: GGGAGUUCUACAGUCCGACGAUCGUAUCAAGAACAUGAUUAUCCAGCGGUAUUUUCUAAUUCAGAUCAUCAAACUGAUUAUAUAGAAGAGUUGGCUUUAAAAUGUUUGCAAAUGUCUUUUUUUUUUUAAUACUGGAAGAAAAACAACAGAGGAUUGAGCAUCA
B9: chr4:2944067:2944171:-|CDS|ENSG00000087269|unk|FALSE|unique (ssRNA)
RNA: GGGAGUUCUACAGUCCGACGAUCGGCUUUGUCCCAGAGGUUUAUACCUGAGCUUAUUAAUUUUCUUCUUGGGAUUCUUUACAUAGCAACUCCAAACAAAGCAAGCCAAGGUGAGUUGAUUUGAGGGAGGUUCCUACAAAUAUGCAACAGAGGAUUGAGCAUCA
B10: chr22:38864602:38864703:-|3pUTR|ENSG00000183741|msi1|FALSE|bound_elsewhere (ssRNA)
RNA: GGGAGUUCUACAGUCCGACGAUCGCUGUGCUGCCAUGGGCCCCUCCCUCAGAAGCACGUUGGCAGGAGGCCGAUCAGAACCCUAGCGCCUUUGGUCCUAAGAAUGGGAGGCUGCCUUCCUUCCCAAUCUCCCUGCCAGGGCCCCAACAGAGGAUUGAGCAUCA
B11: chr1:13049810:13050369:-|CDS|ENSG00000274764|control|control|control (ssRNA)
RNA: GGGAGUUCUACAGUCCGACGAUCGCCCCGCGGGAGAGUUAUGGUGCUGAUGGUACUCUCUGCUGGAACAGAUUUGCUCAAAUUAGGGCUGAGCUGAUGAACAGAGUGAGGGACUUAAGGCACCCCAAGAGGAUCUUUUUCUGUCAACAGAGGAUUGAGCAUCA
B12: chr12:111449306:111449407:+|3pUTR|ENSG00000111252|msi1|FALSE|unique (ssRNA)
RNA: GGGAGUUCUACAGUCCGACGAUCGCUGGCUUGGUGCCCUCCAAGCAUCUAAUGGCUUAUUAAAUUAUCCCACAAGUGGGUUUUAGGCUCCUUUUUUGAGCCAAAAUGGAAGCUGGGAAUCUGGUGCCAUAACUAAUGAGAAACCAACAGAGGAUUGAGCAUCA
B13: ENSG00000136451:be:win_4051|3pUTR|ENSG00000136451|bound_else_gene|NA|bound_elsewhere_windowed (ssRNA)
RNA: GGGAGUUCUACAGUCCGACGAUCGGUGGGCCACUGAAAAGGGGUACCGAAUAGGUUGUGUGAUGAAAUUCUGUGUCUUGGAACUGGAAUUGAGUUUCGAUGUUGAUGAACUGAUUCAACCAGGUGUUGAAGGCACGACAGCCACAACAGAGGAUUGAGCAUCA
B14: chr5:133955728:133955829:-|3pUTR|ENSG00000113583|msi1|FALSE|unique (ssRNA)
RNA: GGGAGUUCUACAGUCCGACGAUCUCAAUAUGUAAAUAUGUGAUUUGAACCAUGGUUGACUUACAAGUGUCACUACAGCUUUUUAGAAAACAUAGCCCUAAUAUAUGUUAAGCAGGACCCGGGUGAGCCAGUGGGCUUGCGCUUCAACAGAGGAUUGAGCAUCA
B15: ENSG00000056097:stop:overlap|stop_codon|ENSG00000056097|stop_codon|NA|stop_codon (ssRNA)
RNA: GGGAGUUCUACAGUCCGACGAUCAAGUCACUAUCACACUGACAUCUCCAAUUAUUCGAGAAGAGAACAUGAGGGAAGGAGGCUAGAGCUAAUGGUCUGCAGUCCUGUGUGAUUAUCAUACGCAUUCUUCGAGACCUCUGUCAGCAACAGAGGAUUGAGCAUCA
B16: chr8:102207567:102207681:-|3pUTR|ENSG00000048392|unk|total|mutant (ssRNA)
RNA: GGGAGUUCUACAGUCCGACGAUCUAUUAAUUGCAAUGAUGUUGUAAUAAAAUACUCUCAUUUCCUUAAAAUAAUUGUGAUUCCCGGUCCCCGGAUCCCGAAUCCGAUCUUUGUAUUUUUAAUGCUCCGGGGAAGAAUAUAAGUCAACAGAGGAUUGAGCAUCA
B17: ENSG00000198589:be:win_2351|CDS|ENSG00000198589|bound_else_gene|NA|bound_elsewhere_windowed (ssRNA)
RNA: GGGAGUUCUACAGUCCGACGAUCAUAAUGUGCUGUUUGAGAUUCUUAUAGAACAGAUUGGUACUCAGGUGAUACAUAAACAGCAUCCAGAUCCUGAUUCUUCAGUGAAGAUACAAAACCCUCAGAUACUAAAAGUAAUUGCGACAACAGAGGAUUGAGCAUCA
B18: ENSG00000198589:be:win_9051|3pUTR|ENSG00000198589|bound_else_gene|NA|bound_elsewhere_windowed (ssRNA)
RNA: GGGAGUUCUACAGUCCGACGAUCGUAAAUGUAAUUUAAAACAUCUCAAUUAAGUCUGUCUAUCAAUAUUGUUCUUCAAGCAUGUUUUAGACCUAGAAAAGUAUGGUUUGGGGGAGGCUAUUUUAUUGUGUGGUUAGCACAAGGCAACAGAGGAUUGAGCAUCA
B19: chr1:180199467:180199568:+|3pUTR|ENSG00000116260|msi1|FALSE|unique (ssRNA)
RNA: GGGAGUUCUACAGUCCGACGAUCCACAGGAACAAUUUCCUCAAGGAGACAGUGGCAUGGAGCUUUGAAAGACGAGUAGGUGUUAGCAAGGAAAUAAGGAGGAACGGGGGUUACGGGCAGAGGAGAAAGCACAUGCCAAGUCAGCAACAGAGGAUUGAGCAUCA
B20: chr1:111147767:111147876:+|CDS|ENSG00000134255|unk|FALSE|unique (ssRNA)
RNA: GGGAGUUCUACAGUCCGACGAUCAUUAAAUAAAUUGUUUCAGUUACCAACACCACCAUUGUCAAGACACCAACUAAAGCGGCUAGAAGAACACAGAUAUCAAAGUGCUGGACGGUCCCUGCUUGAGCCCUUAAUGCAAGGGUACAACAGAGGAUUGAGCAUCA
B21: chr4:186588032:186588133:-|3pUTR|ENSG00000083857|msi1|total|mutant (ssRNA)
RNA: GGGAGUUCUACAGUCCGACGAUCUUUUUUUACUAUAACCAGGGUUUCAUUCUGUCUUUUUCCACUGAAGUGUGACAUUUUGUCCGUACAUUUCAGUGCCGUCAUUCAUUUCCCGCUGUACACCGGAUGAAGGAGAGAUCAGAUCAACAGAGGAUUGAGCAUCA
B22: chr10:110133424:110133536:+|CDS|ENSG00000148700|unk|total|mutant (ssRNA)
RNA: GGGAGUUCUACAGUCCGACGAUCGCAUGAUGUUGAAGAUGAGCUUGCUAAGCGAGUGAGCCGGUUAAGCACAAGUACAACCACCGAAAACAUCGAGAUUACUAUUAAGUCUCCAGAGAAAAUCGAAGAAGUCCUGUCACCUGACAACAGAGGAUUGAGCAUCA

molecular target: T1, UNK ZnF1-6 (called full-length) (human, UniProt Q9C0B0 30-357); assay: nsRBNS (natural sequence RNA bind-n-seq); RBNS binding buffer (assumed for nsRBNS): 25 mM Tris pH 7.5, 150 mM KCl, 3 mM MgCl2, 0.01% Triton X-100, 500 ug/ml BSA, 20 U/ml SUPERase-In, 4 C; UNK is unkempt and MSI1 is Musashi-1; names of the RNAs are library labels; protein concentration not given here; high values mean tight binding
T1 sequence: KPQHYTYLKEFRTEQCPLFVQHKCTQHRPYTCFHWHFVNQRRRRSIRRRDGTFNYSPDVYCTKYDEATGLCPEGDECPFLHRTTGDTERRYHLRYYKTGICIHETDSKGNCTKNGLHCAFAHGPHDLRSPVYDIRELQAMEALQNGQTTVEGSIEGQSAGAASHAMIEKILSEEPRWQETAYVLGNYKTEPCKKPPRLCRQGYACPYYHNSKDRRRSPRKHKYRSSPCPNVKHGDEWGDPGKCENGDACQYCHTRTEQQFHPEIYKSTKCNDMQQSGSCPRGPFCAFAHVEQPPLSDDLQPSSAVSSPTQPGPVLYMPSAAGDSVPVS

| Binder | binding signal [enrichment R] |
| --- | --- |
| B1 | 0.702 |
| B2 | 0.402 |
| B3 | 0.662 |
| B4 | 0.685 |
| B5 | 0.746 |
| B6 | 1.07 |
| B7 | 0.612 |
| B8 | 0.718 |
| B9 | 0.644 |
| B10 | 0.904 |
| B11 | 1.01 |
| B12 | 0.676 |
| B13 | 0.486 |
| B14 | 1.2 |
| B15 | 0.631 |
| B16 | 0.334 |
| B17 | 0.376 |
| B18 | 1.32 |
| B19 | 1.51 |
| B20 | 0.743 |
| B21 | 0.542 |
| B22 | 0.335 |
